Laboratory results as given in the supplement of paper PMC3334620.
Over roughly 33,000 sequences, “E-score (-0.5 to 0.5)” has its median near -0.017; the highest 2% begin near 0.3. This is one part of the list.

What follows are sequences tested against T1, Sut1 (UniProt P53032) (assay: PBM E-score (8-mer binding enrichment) (E-score (-0.5 to 0.5)); higher = stronger / more preferred TF binding; most listed sequences are background and not binding sites). Conditions: protein concentration: 200 nM; construct: GST-full length.
T1 sequence: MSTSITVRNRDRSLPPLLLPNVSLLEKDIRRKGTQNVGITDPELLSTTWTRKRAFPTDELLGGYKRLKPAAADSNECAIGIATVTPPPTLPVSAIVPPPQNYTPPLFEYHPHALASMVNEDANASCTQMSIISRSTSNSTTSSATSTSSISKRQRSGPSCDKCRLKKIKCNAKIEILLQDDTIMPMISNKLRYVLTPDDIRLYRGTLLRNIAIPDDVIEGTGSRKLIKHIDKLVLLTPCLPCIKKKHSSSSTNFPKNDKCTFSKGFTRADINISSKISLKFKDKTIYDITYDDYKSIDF
How it was run: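 Using PURExpress in vitro transcription/translation, GST-tagged yeast transcription factors were made in full-length or DNA-binding-domain form. These were applied at about 100-200 nM to double-stranded universal all-10-mer Agilent arrays, and bound protein was detected with fluorescent anti-GST. Scans were normalised with masliner before the Universal PBM Analysis Suite assigned E-scores to ungapped eight-base words pooled with their reverse complements.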

| Sequence | PBM E-score |
| --- | --- |
| CCTACGCG | -0.166 |
| GCTAGGAA | -0.0732 |
| CCAACAGA | -0.141 |
| AGAGGCAA | -0.0652 |
| ACCTTCTA | 0.0755 |
| GCCCCATA | -0.245 |
| GGAGGCCA | -0.282 |
| GAGCAATC | 0.00468 |
| ACACGTAC | 0.0618 |
| AGAGGCGA | -0.137 |
| CAACGGTC | -0.0872 |
| AGCGATAA | 0.0334 |
| GGGTGGTA | -0.128 |
| CGTTGAAC | -0.0173 |
| CGTAACAC | -0.169 |
| ACAGGCCT | -0.197 |
| AGCTTCCA | -0.0034 |
| CTTAGAGC | 0.0425 |
| ACAGAGGT | -0.13 |
| CCAACTTC | -0.041 |
| GACCAGTA | -0.274 |
| GTGAATTA | 0.0914 |

| Sequence | PBM E-score |
| --- | --- |
| ACCCCCAG | -0.287 |
| CTCTGTAA | -0.134 |
| GCTTCCGA | 0.303 |
| ATATGGTG | -0.0888 |
| ATCTGCCG | 0.143 |
| ACAATTTC | 0.0702 |
| CCATCCAA | 0.144 |
| CATTCGGA | 0.392 |
| CGGGGTAA | 0.224 |
| CAAGTAAA | 0.0738 |
| CGTTGTTC | 0.086 |
| CGTGCTAC | -0.252 |
| ACCTGGTC | -0.138 |
| CTGGTAGA | -0.0164 |
| GACCACGC | -0.218 |
| CCACACGC | -0.197 |
| TCTCGCCA | -0.0247 |
| AAACCAAG | 0.117 |
| ATTCTGGG | -0.169 |
| CCCGCGGA | 0.295 |
| GACAGCTA | -0.149 |
| ATGAGTCG | -0.157 |

| Sequence | PBM E-score |
| --- | --- |
| GCTGAAAC | 0.0538 |
| CGCATAAG | -0.0216 |
| AAGATACG | 0.224 |
| CATACTCC | 0.325 |
| AGTTGCTG | -0.0452 |
| AGACTCGC | -0.232 |
| ACGGGGCA | -0.204 |
| AATGCTGG | -0.172 |
| CATATTAC | 0.179 |
| AATTACTA | 0.175 |
| AATTGCTA | 0.111 |
| CTCCTCCC | -0.271 |
| CCTTACGC | -0.0944 |
| ACCCCCGT | -0.282 |
| CCCATCGA | -0.0349 |
| CGATACCG | -0.126 |
| AAGTAGGA | -0.0349 |
| ACAGGTTC | -0.163 |
| ACTTGCTA | -0.0901 |
| CGATATGA | -0.0866 |
| GTAAGTGA | 0.136 |
| CATTAAGA | 0.00184 |

| Sequence | PBM E-score |
| --- | --- |
| TATGCAGA | -0.0195 |
| GGGCTCTA | -0.156 |
| AGCAGCCC | -0.174 |
| ACATAAAG | 0.188 |
| CAGTCAAC | -0.182 |
| AAAACAGG | -0.0709 |
| ATGCACAG | -0.229 |
| AGACAACC | 0.172 |
| AATGTCAA | -0.0431 |
| AGCCTGAG | -0.276 |
| CAGTTTTC | 0.0987 |
| AGGACGTA | -0.139 |
| GGTCGGAA | 0.145 |
| AGACGAAC | 0.0923 |
| ACCAGGTC | -0.142 |
| CTCTACAC | -0.197 |
| CATGTGGA | -0.078 |
| ATCACACC | 0.0238 |
| GGGCTCAC | -0.236 |
| CTTGATCA | 0.00233 |
